# About 18,000 (5.8%) of roughly 310,000 compounds were called active. Inconclusive means that the source gave no clear call. Such entries were picked first, then a sample of the others. Calls follow the shape of the dose curve; as a rule, active = well fitted inhibition curve with a large enough effect; inconclusive = small, poorly fitted or top-dose-only effect, or another doubt; inactive = no such curve, though single readings can be large or run the other way. No potency is given beside an inconclusive call; the fits are too rough. Where a structure was tested more than once in an assay, its records may differ in their call.
# Assay: Primary qHTS for delayed death inhibitors of the malarial parasite plastid, 48 hour incubation
# Conditions: P. falciparum luciferase growth in erythrocytes; series mostly up to 28.7 µM; activity change, negative = inhibition: at the top concentration
# How it was run: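 A one-generation exposure of luciferase-tagged malaria parasites in RPMI 1640/Albumax erythrocyte culture, 37 C and 5% CO2. Inhibition is inferred from decreased luminescence after adding detection reagent.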
# % is scaled to controls: 0 for no effect and ±100 for the full control effect; potency is read from the fitted curve at half-maximal effect; tags tell the direction and shape of the fitted curve.
SMILES,Potency,"activity change, negative = inhibition"
C/C(=N\NC(=O)c1cc(Br)ccc1O)c1ccccn1,"inconclusive [inhibitor, partial curve]",–
CCOc1ccc(Nc2nc(N3CCCC3)nc(N3CCN(c4ccc(OC)cc4)CC3)n2)cc1,"inconclusive [inhibitor, full curve, poor fit]",–
O=S(=O)(Nc1cccc(S(=O)(=O)N2CCCC2)c1)c1cccc(Br)c1,–,inactive: -6.8%
COC(=O)CN1C(=O)[C@H]2[C@@H](C3CC3)N3C(=O)CN(Cc4ccc(-c5ccccc5)cc4)C(=O)[C@@]3(Cc3ccccc3)[C@H]2C1=O,"inconclusive [inhibitor, full curve, poor fit]",–
Cc1nc2ccccc2c(=O)n1/N=C/c1ccccc1Cl,–,inactive: 68.3%
CC1(C)CC(=O)C2=C(C1)Oc1ncn(Cc3ccco3)c(=N)c1C2c1ccccc1 (stereo unspecified),"inconclusive [inhibitor, partial curve]",–
COc1c(C)cccc1C(=O)Nc1ccc(N2CCN(C(=O)c3ccccc3C)CC2)cc1,"inconclusive [inhibitor, full curve, poor fit]",–
COc1ccc(C2C(C#N)=C(SCC(=O)Nc3ccc(C)cc3)NC3=C2C(=O)CC(C)(C)C3)cc1 (stereo unspecified),active: 13.1 µM,–
COCCn1c(-c2cccs2)nc2c(c(=O)c3ccccc3n2C)c1=O,"inconclusive [inhibitor, partial curve, poor fit]",–
NC(=O)/C(=C/c1cccnc1)NC(=O)c1ccccc1,–,inactive: 13.2%
CCOc1ccc(CCNC(=O)CSc2cc(=O)n(C)c3ccc(Cl)cc23)cc1OCC,"inconclusive [inhibitor, partial curve, poor fit]",–
C=CCN(CC=C)S(=O)(=O)c1ccc2nc(NC(=O)C3CCCO3)sc2c1 (stereo unspecified),–,inactive: -14.9%
C=Cn1c(P(=S)(N2CCOCC2)N2CCOCC2)cc2c1CCCC2,active: 11.7 µM,–
Cc1c(Cl)cccc1NC(=S)N1CCc2ccccc2C1,–,inactive: -6.35%
CN(C)CCNC(NC(=O)c1cccs1)C(Cl)(Cl)Cl (stereo unspecified),–,inactive: -3.5%
c1ccc(C2CN3CCSC3=N2)cc1 (stereo unspecified),active: 2.69 µM,–
CCOC(=O)N1CCN(c2nc3ccccc3nc2C(C#N)C(=O)NCCc2ccccc2)CC1 (stereo unspecified),active: 7.38 µM,–
O=C(N/N=C/c1ccc(-c2cccc(C(F)(F)F)c2)o1)c1ccccc1O,active: 8.28 µM,–
CCCN1CCc2c(sc3nc(SCC)n(-c4ccccc4)c(=O)c23)C1,active: 1.31 µM,–
N=c1n(CCN2CCCCC2)c2ccccc2n1CC(O)c1cccc(Br)c1 (stereo unspecified),active: 0.586 µM,–
COCCNC(=O)[C@@H]1CCCN1S(=O)(=O)c1cccc2cccnc12,"inconclusive [inhibitor, single point]",–
COC(=O)c1ccc(COc2cc(O)c3c(c2)OC(C)(C)CC3=O)cc1,"inconclusive [inhibitor, single point]",–
O=C(N/N=C/c1ccc(O)cc1)c1ccc(COc2cc(Cl)ccc2Cl)o1,"inconclusive [inhibitor, single point]",–
O=c1cc[nH]c2c1ccc1cccnc12,–,inactive: 2.33%

SMILES,Potency,"activity change, negative = inhibition"
O=C(CCCOc1ccccc1)N1CCc2ccccc2C1,–,inactive: 66.3%
CCOC(=O)N1CCN(C2=Nc3cccc4cccc2c34)CC1,"inconclusive [inhibitor, single point]",–
CCNC(=S)N(Cc1cc2c(C)ccc(C)c2[nH]c1=O)C1CCCC1,"inconclusive [inhibitor, partial curve, poor fit]",–
Cc1ccn2c(C(=O)N/N=C/c3ccc(CNC(=O)C(=O)Nc4ccc(C)c(C)c4)o3)c(C)nc2c1,–,inactive: 5.88%
COc1ccc(-c2nnn(Cc3nc(N)nc(N4CCCCC4)n3)n2)cc1,"inconclusive [inhibitor, single point]",–
CCCC(=O)N(CCN(Cc1ccccc1)C(=O)CCC)Cc1ccccc1,"inconclusive [inhibitor, partial curve, poor fit]",–
Cc1ccc(S(=O)(=O)Cc2ccc(C(=O)N3CCC(C)CC3)cc2)cc1,–,inactive: -7.12%
C=C(C)c1cccc(C(C)(C)NC(=O)NCc2ccncc2)c1,active: 13.1 µM,–
CNC(=O)c1ccsc1NC(=O)c1ccc(S(=O)(=O)N2CCOCC2)cc1,–,inactive: -5.56%
Cc1ccc(CN2CCNC2=O)cc1,"inconclusive [inhibitor, full curve, poor fit]",–
COc1cccc(CCNC(=O)c2ccc(C#N)cc2)c1,–,inactive: 19.2%
CCOc1ccc(CCNC(=O)c2ccc3ccccc3n2)cc1OCC,"inconclusive [inhibitor, single point]",–
COc1c(C)cc(S(=O)(=O)NCc2ccccn2)c(C)c1C,–,inactive: -2.79%
N#Cc1ccccc1OCC(=O)N1CCc2ccccc2C1,"inconclusive [inhibitor, single point]",–
COc1ccccc1NC(=O)CSC1CC(=O)N(c2ccc3c(c2)OCO3)C1=O (stereo unspecified),–,inactive: 17.5%
CN(C)S(=O)(=O)c1cccc(C(=O)Nc2cc(Cl)ccc2O)c1,"inconclusive [inhibitor, single point]",–
N#CC1=C(Nc2ccccc2)SC=C(c2ccc(Br)cc2)N=C1N1CCOCC1,"inconclusive [inhibitor, single point]",–
CCCN(CC(=O)Nc1ccccc1OC)C(=O)CCC(=O)c1ccc(Cl)s1,"inconclusive [inhibitor, single point]",–
CC(C)(Oc1ccc(Cl)cc1)C(=O)NCC(c1ccco1)N1CCCCC1 (stereo unspecified),"inconclusive [inhibitor, single point]",–
CC(C)(C)c1ccc(-c2nc3cc(N)ccc3o2)cc1,–,inactive: 253%
CC(C)(C)OC(=O)N1CCC(c2c(C(=O)NCC3CCN(C4CCCC4)C3)cnn2-c2cccc(Cl)c2)CC1 (stereo unspecified),"inconclusive [inhibitor, full curve]",–
CN(C)c1ccc(/C=C2\NC(=S)N(Cc3ccccc3)C2=O)cc1,"inconclusive [inhibitor, partial curve, poor fit]",–
COc1ccc(NC(=O)c2sc3nc(N4CCOCC4)c4c(c3c2N)CC(C)(C)OC4)cc1,–,inactive: 26.4%
C=C(C)COc1ccc(-c2nc(N)ncc2-c2ccc(OC)c(OC)c2)c(O)c1,"inconclusive [inhibitor, single point]",–

SMILES,Potency,"activity change, negative = inhibition"
CCOC(=O)C1CCN(C(=O)COc2ccc(S(=O)(=O)N3CCOCC3)cc2)CC1,"inconclusive [inhibitor, partial curve]",–
CCOc1cc(NC(=S)Nc2cccc(OC)c2)c(OCC)cc1NC(=O)c1ccc(C)cc1,"inconclusive [inhibitor, partial curve]",–
C=CCn1c(SCC(=O)NCC2CCCO2)nc2scc(-c3ccco3)c2c1=O (stereo unspecified),"inconclusive [inhibitor, single point]",–
CC(NC(=O)CC1Nc2ccccc2NC1=O)c1ccccc1 (stereo unspecified),"inconclusive [inhibitor, single point]",–
N#C/C(=C/c1ccc(-c2ccccc2[N+](=O)[O-])o1)C(=O)NCCN1CCCCC1,"inconclusive [inhibitor, single point]",–
Cc1ccc(S(=O)(=O)NCCC(=O)N2CC(C)OC(C)C2)cc1C (stereo unspecified),–,inactive: 33.5%
CC(=O)c1ccc(NC(=S)N2C(C)CCCC2C)cc1 (stereo unspecified),"inconclusive [inhibitor, single point]",–
COc1cc(N/N=C/c2ccccc2O)ncn1,"inconclusive [inhibitor, single point]",–
Cc1nn(C)c(C)c1/C=C(\C#N)C(N)=O,–,inactive: -12.1%
Cc1ccc(Sc2c([N+](=O)[O-])ncn2C)cc1,"inconclusive [inhibitor, single point]",–
CCOC(=O)C(=O)/C(=C\N(C)C)c1onc(-c2c(Cl)cccc2Cl)c1C(=O)OC,"inconclusive [inhibitor, single point]",–
COc1ccccc1N1CCN(S(=O)(=O)c2ccc(-c3ccc(=O)[nH]n3)o2)CC1,"inconclusive [inhibitor, partial curve]",–
Cn1c(=O)cc(OCCCC(=O)NCCCN2CCN(Cc3ccccc3)CC2)c2ccccc21,"inconclusive [inhibitor, single point]",–
C=CCOC(=O)C1=C[C@@H](c2ccc(Br)cc2)C[C@@H](OCc2ccc(CO)cc2)O1,"inconclusive [inhibitor, full curve, poor fit]",–
O=C(O)c1cccc(N2CCCC2=O)c1,–,inactive: 4.16%
NC(=O)COC(=O)c1ccc(Oc2ccccc2)cc1,–,inactive: 0.116%
Cc1nnc2sc(SCC(=O)Nc3ccc(Cl)cc3)nn2c1=O,"inconclusive [inhibitor, single point]",–
Clc1ccc([C@@H](OCCN2CCCCC2)c2ccccc2)cc1,"inconclusive [inhibitor, single point]",–
N#CCC(=O)Nc1ccc(C(=O)Nc2ccc3c(c2)OCO3)cc1,"inconclusive [inhibitor, single point]",–
O=C(NCc1ccco1)/C(=C/c1cccc(C(F)(F)F)c1)c1nc2ccccc2[nH]1,"inconclusive [inhibitor, single point]",–
Cc1sc(NC(=O)c2ccco2)c(C(c2ccccc2)N2CCC(C)CC2)c1C (stereo unspecified),active: 5.22 µM,–
COc1ccc(NC(=O)CN(C)C(=O)CSc2ccc(Br)cc2)cc1,"inconclusive [inhibitor, partial curve, poor fit]",–
CCOc1ccc(CCNC(=O)COC(=O)/C=C/c2ccc(OC)c(OC)c2)cc1OCC,"inconclusive [inhibitor, single point]",–

# From PubChem BioAssay AID504832 (National Center for Advancing Translational Sciences (NCATS), 2011)
